Laboratory results taken from publication PMC2172712 (The Journal of Cell Biology, 2003).

Target: His-tagged full-length Hrs (hepatocyte responsive serum phosphoprotein) (rat, UniProt Q9JJ50 1-776)
Assay: co-sedimentation

Sequence of UniProt Q9JJ50 (Q9JJ50 whole entry): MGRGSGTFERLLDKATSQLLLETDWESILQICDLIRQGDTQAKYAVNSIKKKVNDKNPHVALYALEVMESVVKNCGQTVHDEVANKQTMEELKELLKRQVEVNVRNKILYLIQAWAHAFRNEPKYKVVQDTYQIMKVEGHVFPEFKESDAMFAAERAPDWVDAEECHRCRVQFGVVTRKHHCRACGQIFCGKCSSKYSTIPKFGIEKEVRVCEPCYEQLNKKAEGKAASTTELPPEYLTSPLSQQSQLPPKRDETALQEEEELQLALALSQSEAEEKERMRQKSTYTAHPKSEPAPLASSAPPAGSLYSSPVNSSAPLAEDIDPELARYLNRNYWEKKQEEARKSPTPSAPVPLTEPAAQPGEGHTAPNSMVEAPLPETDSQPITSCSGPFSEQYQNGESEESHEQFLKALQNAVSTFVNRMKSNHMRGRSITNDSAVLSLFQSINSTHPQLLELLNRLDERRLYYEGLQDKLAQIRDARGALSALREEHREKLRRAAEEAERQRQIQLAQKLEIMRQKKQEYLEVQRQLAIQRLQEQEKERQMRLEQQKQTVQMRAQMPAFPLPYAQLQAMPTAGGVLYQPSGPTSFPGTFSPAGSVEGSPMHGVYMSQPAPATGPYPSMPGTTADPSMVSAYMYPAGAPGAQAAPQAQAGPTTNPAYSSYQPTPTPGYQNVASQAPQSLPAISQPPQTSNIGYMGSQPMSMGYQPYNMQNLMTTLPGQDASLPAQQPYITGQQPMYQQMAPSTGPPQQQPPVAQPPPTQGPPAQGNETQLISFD

B1: SNAP-25([…]) (domain or fragment)
chain: not shown
- binding result: binds
